# This is one part of the list.
# Target: T1, OsWOX13 (Oryza sativa, UniProt Q5QMM3 1-267)
# T1 sequence: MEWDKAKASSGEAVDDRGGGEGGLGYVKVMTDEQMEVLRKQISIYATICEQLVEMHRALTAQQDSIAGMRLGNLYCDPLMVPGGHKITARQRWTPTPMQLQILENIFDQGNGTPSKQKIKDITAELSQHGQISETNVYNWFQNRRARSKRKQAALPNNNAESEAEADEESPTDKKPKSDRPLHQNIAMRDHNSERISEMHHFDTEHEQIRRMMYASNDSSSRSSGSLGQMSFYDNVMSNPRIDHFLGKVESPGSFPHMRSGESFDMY
# Assay: protein-binding microarray (RPBM); PBS, 2% BSA, 51.3 ng/ul salmon testes DNA, 50 uM zinc acetate, 200 nM TF, 25 C, 1 h; high values mean tight binding
# Details: protein: recombinant; tags: N-terminal polyhistidine and DsRed monomer fusion (pET32a); label: CyDye5-dUTP incorporated in the synthesized complementary strand; 3' TTTTT single-stranded linker to array surface; dsDNA, one strand shown
# Procedure, shortened: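 For the binding signal, per-feature fluorescence intensity was read in arbitrary units on an Axon 4000B scanner. Before scanning, a 2% BSA-blocked custom Agilent array made double-stranded with Cy5-dUTP was washed after 1 h at 25 °C with 200 nM protein and 50 µM zinc acetate. The proteins were Ni–NTA-purified transcription factors with N-terminal polyhistidine and DsRed fusions, expressed in E. coli BL21-CodonPlus.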
row,Sequence,binding signal
1,GTGATTTCTGATTCTGTGATATATGAATTGATTCATGTGACGGAGTCACCTAGTGCAG,5190 fluorescence intensity (a.u.)
2,GTTCGTTTTAATTATCGTCTGTTAGAAATAATAGTAATGGCGGAGTCACCTAGTGCAG,6830 fluorescence intensity (a.u.)
3,CTAATTGCACAGATTGCAACTAATTTGCGAGACAAATTTTCGGAGTCACCTAGTGCAG,23900 fluorescence intensity (a.u.)
4,GTTATGTAATTAAAACGTTGTTTTCTTCTAATATATTGTCCGGAGTCACCTAGTGCAG,7150 fluorescence intensity (a.u.)
5,TTGATTGTATTAACACTTGTGGCAATGACCACGTGGGACCCGGAGTCACCTAGTGCAG,16500 fluorescence intensity (a.u.)
6,ATATATAATTACACTAGGATTATAGTGTATTTATATATGTCGGAGTCACCTAGTGCAG,16200 fluorescence intensity (a.u.)
7,AATATGATTAAATGTTGGACACATAGATGCACTTAGAATGCGGAGTCACCTAGTGCAG,16100 fluorescence intensity (a.u.)
8,TCGAGATTATGAACGTTTGGTTGACTGCTAATGGCTAACGCGGAGTCACCTAGTGCAG,6760 fluorescence intensity (a.u.)
9,GAGTATAATTGAAGGAACAAACTGGGGAAGCTGGCTAACCCGGAGTCACCTAGTGCAG,31300 fluorescence intensity (a.u.)
10,AAACCATTGCAAATTAACTCTCCAAATGGTTTCAGAGACGCGGAGTCACCTAGTGCAG,4040 fluorescence intensity (a.u.)
11,TTAATTACTGGTTTTGAATAGGGAATGGGTCCGAACGATGCGGAGTCACCTAGTGCAG,4190 fluorescence intensity (a.u.)
12,TGTGGTTGGATTGATTCTAATATATACCAAATCAATATAACGGAGTCACCTAGTGCAG,12400 fluorescence intensity (a.u.)
13,TAAACTCCTAATTACACACACTGAAATTCGTATAGAAGATCGGAGTCACCTAGTGCAG,6630 fluorescence intensity (a.u.)
14,ACGAATAGTAATTTGTGAATAAAACTTTTATATACGTGTTCGGAGTCACCTAGTGCAG,4930 fluorescence intensity (a.u.)
15,GATGCTAATTAAGTGCATAGTGCCGGATTATGTAAGGAAACGGAGTCACCTAGTGCAG,5820 fluorescence intensity (a.u.)
16,AACCCTTGCCAGGTGATTGGAAGTAACTTACTGAATTATCCGGAGTCACCTAGTGCAG,6220 fluorescence intensity (a.u.)
17,TCTTAAACATCAATTCTAACATGGAAAATACGCATTTTACCGGAGTCACCTAGTGCAG,3180 fluorescence intensity (a.u.)
18,CCTTTCCTCCGCTAATTAATTCGCCCAACTAAACTACTCACGGAGTCACCTAGTGCAG,11700 fluorescence intensity (a.u.)
19,ACTATGATTATTACAAGTAACATATAAATTATTAGTCAGGCGGAGTCACCTAGTGCAG,37700 fluorescence intensity (a.u.)
20,GCAAATAATTAATTATTCCCTATGACTAATGGGTGTTCGACGGAGTCACCTAGTGCAG,47800 fluorescence intensity (a.u.)
21,AAAATTGATTTTGTGATAATAAACGTGTGCTCGTTTCTTCCGGAGTCACCTAGTGCAG,39500 fluorescence intensity (a.u.)

row,Sequence,binding signal
1,TTATTTAATTATTGTATATATATTTAGTGTTCAACTCATTCGGAGTCACCTAGTGCAG,5310 fluorescence intensity (a.u.)
2,CCTTGACAGTATCACTATCCTAGGCATTTGCTTCATCATTCGGAGTCACCTAGTGCAG,8720 fluorescence intensity (a.u.)
3,TAGGAAAATACCATCAATCAAGAAAACAAAATTAACTTTGCGGAGTCACCTAGTGCAG,8520 fluorescence intensity (a.u.)
4,GATTGATGGGCTACCTTGGAAATAAGGTAATTCAGAGTTTCGGAGTCACCTAGTGCAG,5190 fluorescence intensity (a.u.)
5,CGAATAGAAATGATTTGAGGGAGCAAACACATTCTCTTTCCGGAGTCACCTAGTGCAG,3780 fluorescence intensity (a.u.)
6,GAAGAAGAAGAACCTTGATTGAAATCCCTAACCCCAACCACGGAGTCACCTAGTGCAG,23600 fluorescence intensity (a.u.)
7,GTTAACTTTTAAACATATATTATAACTATCAGTTTTGTTACGGAGTCACCTAGTGCAG,3620 fluorescence intensity (a.u.)
8,GGTAGATTGTACAGCGGTAAATTGGGTCGCAGGCGAACACCGGAGTCACCTAGTGCAG,16000 fluorescence intensity (a.u.)
9,TGGTGGTGGCTGGCGGCGGGGAGGATGAGAACGAGAGAAGCGGAGTCACCTAGTGCAG,3920 fluorescence intensity (a.u.)
10,CGATAGATTAGATCGAAGTAGAACAGCGGAGAAGGAGAGTCGGAGTCACCTAGTGCAG,9420 fluorescence intensity (a.u.)
11,CATTTGTTCATTGATTGTGATTTTGCAAAGTTTATTTGGACGGAGTCACCTAGTGCAG,19800 fluorescence intensity (a.u.)
12,CCGCAATCAAAATTTAAATTTTAAAACTTAACTTTATAGTCGGAGTCACCTAGTGCAG,40100 fluorescence intensity (a.u.)
13,CCAAGATTAGTAATTGATTGCACTCCTTCAAAATTATTCTCGGAGTCACCTAGTGCAG,43300 fluorescence intensity (a.u.)
14,TCCTAATGAACCAAGATTAGCTTCTCAGTACTGGTGTTTGCGGAGTCACCTAGTGCAG,6190 fluorescence intensity (a.u.)
15,TAGTCTGTCAAATTGGCCATCCATCTCCAGCACTGATACCCGGAGTCACCTAGTGCAG,5020 fluorescence intensity (a.u.)
16,CGCTAACATAATTGTTAGAAACATATGTACGGTGTGATTGCGGAGTCACCTAGTGCAG,46400 fluorescence intensity (a.u.)
17,CTTGGCTAATTTGTGTCTTTGGATGGAACAATATTGTCTCCGGAGTCACCTAGTGCAG,16000 fluorescence intensity (a.u.)
18,AGTTATTTCCTAATTGTATTTCTATATGAACTCTAGTCTCCGGAGTCACCTAGTGCAG,4070 fluorescence intensity (a.u.)
19,TTAAGCATAATTTAAATCTTATACGTTTACATAAAATTTTCGGAGTCACCTAGTGCAG,5680 fluorescence intensity (a.u.)
20,ATATCCCATCCAATCAAAATTGTTATGTTTTGAGAGAGAGCGGAGTCACCTAGTGCAG,10400 fluorescence intensity (a.u.)
21,ATGGGCTGATTGGGCTCAATGTTTGCGAGATCTCGATCAACGGAGTCACCTAGTGCAG,20800 fluorescence intensity (a.u.)

row,Sequence,binding signal
1,ATATAATGAAATTTCAGAGAGGGTGGACTGGGCTTTATAGCGGAGTCACCTAGTGCAG,6290 fluorescence intensity (a.u.)
2,TAAGGTGATTGTATTTATAGCTAATTATTCTTTCATTCGTCGGAGTCACCTAGTGCAG,19500 fluorescence intensity (a.u.)
3,CGAATCTAGATAAAGTCAATTAGACACCACTTAATAGACTCGGAGTCACCTAGTGCAG,5710 fluorescence intensity (a.u.)
4,TGCCAATTGCCAAATAATCTCATCACTGAATAACACGGAGCGGAGTCACCTAGTGCAG,4500 fluorescence intensity (a.u.)
5,GTTTGATTGCACATTATGTCCTTGGAGTTCTTCAACATAGCGGAGTCACCTAGTGCAG,55700 fluorescence intensity (a.u.)
6,CTATATTGAAAGTCACTGACATGTGGGCTAAGCATATAGCCGGAGTCACCTAGTGCAG,3180 fluorescence intensity (a.u.)
7,CCAATTAAGATTTCTAATATTATGATATGTCGCATCCGGTCGGAGTCACCTAGTGCAG,4340 fluorescence intensity (a.u.)
8,GATCCCAATTAACTCGTCACGTTAACTAAAATCAGACAATCGGAGTCACCTAGTGCAG,18100 fluorescence intensity (a.u.)
9,CTTGGTTGATTTTCATGTGTGGATCCATGGGGATGGTCATCGGAGTCACCTAGTGCAG,3440 fluorescence intensity (a.u.)
10,CAGGTAGGATTTGATTAATCATATTATTAGTTACAAATAACGGAGTCACCTAGTGCAG,12400 fluorescence intensity (a.u.)
11,TCACACCAAAATTGAAAATTTGATTGAAATTGGAATGATGCGGAGTCACCTAGTGCAG,26900 fluorescence intensity (a.u.)
12,AGCAGTAAATTACAAAACCCAAACGTATAAAATTCTCTTACGGAGTCACCTAGTGCAG,3720 fluorescence intensity (a.u.)
13,GGGGTAATTACTGCCTCGGATGATGGAAAATGCTTGATCGCGGAGTCACCTAGTGCAG,28600 fluorescence intensity (a.u.)
14,AACATGACTGCAATACCGGATTATCCAATGTCCGAGGGACCGGAGTCACCTAGTGCAG,10900 fluorescence intensity (a.u.)
15,GCAATAAATTACTGGGGTCAGTGGACGATGCCTCCCTTCCCGGAGTCACCTAGTGCAG,9380 fluorescence intensity (a.u.)
16,ACTATAAATGGGATTACTTTCCTTTGCTTAATAGTTCATGCGGAGTCACCTAGTGCAG,4040 fluorescence intensity (a.u.)
17,GATTACGATTATAACCTCAATTACTTATCAATGCCAAGAACGGAGTCACCTAGTGCAG,4270 fluorescence intensity (a.u.)
18,ATTAATTAATTAGTGATCATACATAATTGAGGTGATTTATCGGAGTCACCTAGTGCAG,65000 fluorescence intensity (a.u.)
19,AACCAGTTCAATCATCCAGTATACTTCCCATCCTCCTACTCGGAGTCACCTAGTGCAG,5200 fluorescence intensity (a.u.)
20,ATTAGTAATTGATATAGAGGTAGACAGAAGGACGGCACTACGGAGTCACCTAGTGCAG,32500 fluorescence intensity (a.u.)
21,CTTGCTGATTTCTGTTCCCTAAACCCCTCAAGCACTGCTGCGGAGTCACCTAGTGCAG,7470 fluorescence intensity (a.u.)

row,Sequence,binding signal
1,AAATCGGCGCAAATTGCTAATCATGTTGTACTGTAATATACGGAGTCACCTAGTGCAG,13000 fluorescence intensity (a.u.)
2,TGACCGGTGACAGGACAAATCACGGCACTAGACACCACCACGGAGTCACCTAGTGCAG,12700 fluorescence intensity (a.u.)
3,AAAGTTGATAATCACAATCAATTAGGCCCCTTTGCAATGCCGGAGTCACCTAGTGCAG,34300 fluorescence intensity (a.u.)
4,GATTAACTAGGAGTTGATTATAAGCTAAATCGGCTTTATTCGGAGTCACCTAGTGCAG,16000 fluorescence intensity (a.u.)
5,ATAAATAATGAAATGTTAAATTAGCCGTCCGGTTTCTCCACGGAGTCACCTAGTGCAG,23700 fluorescence intensity (a.u.)
6,GATCCATGAGATATGATCATCAATTAATACATGTGCTGATCGGAGTCACCTAGTGCAG,4010 fluorescence intensity (a.u.)
7,CATAAATTTGTTTATTCTATACATAAACAGGGAAAGTTTCCGGAGTCACCTAGTGCAG,18500 fluorescence intensity (a.u.)
8,ACAAACTGCTGTTATCCATCCAATCCAGTGTCCCAAAGCACGGAGTCACCTAGTGCAG,7640 fluorescence intensity (a.u.)
9,AAGGATTAATTTCTAAATGATAAAAGTTTTGTTGTTATGACGGAGTCACCTAGTGCAG,26000 fluorescence intensity (a.u.)
10,GAATCAAGTGATTGGGATAGATCGGTCACTTGCTGAGACACGGAGTCACCTAGTGCAG,15800 fluorescence intensity (a.u.)
11,TGTTATTGATGTGCGTCGGATCTTGATCTAAGGGTTGAAACGGAGTCACCTAGTGCAG,3830 fluorescence intensity (a.u.)
12,GAGAGACAATTGACTGGACTTTTGTCGTGTTGACCACAGCCGGAGTCACCTAGTGCAG,19500 fluorescence intensity (a.u.)
13,AAATGTATAATTAATTCAATTGGCGATATTATAATATTAACGGAGTCACCTAGTGCAG,4440 fluorescence intensity (a.u.)
14,AATAAATAATGTAATTAACTAACAGTGCAAACTATTTCAACGGAGTCACCTAGTGCAG,13200 fluorescence intensity (a.u.)
15,ACATAATTATAACTTGTACTTATGTAACTACAACGCAAATCGGAGTCACCTAGTGCAG,26500 fluorescence intensity (a.u.)
16,GTTTTAAGAGTAAAGTGCATTGGTGGTCCTTAAACTTATACGGAGTCACCTAGTGCAG,3880 fluorescence intensity (a.u.)
17,CATAATTGCTGATATTTTGTCTTTGGAGTTTGATCCATGGCGGAGTCACCTAGTGCAG,44200 fluorescence intensity (a.u.)
18,GTTAATAGATACAGGATTTATTGATATATGTTGTTGTACTCGGAGTCACCTAGTGCAG,37400 fluorescence intensity (a.u.)
19,CGTTCAAATTAGTAGTTAGATATAAAACGAATGAAGTAAACGGAGTCACCTAGTGCAG,9800 fluorescence intensity (a.u.)
20,TCCAAACGAATTAACAACAAATCAGTCGCGCGTTTGAAACCGGAGTCACCTAGTGCAG,4980 fluorescence intensity (a.u.)
21,ATACAAATCACTGCCCATATCGCCCTCAAATACAAAATACCGGAGTCACCTAGTGCAG,5250 fluorescence intensity (a.u.)
